From PubChem BioAssay AID686971 (National Center for Advancing Translational Sciences (NCATS), 2013)
Out of some 360,000 compounds screened, about 7,500 (2.1%) were called active. This list was built around the results that the source calls inconclusive (neither active nor inactive); the mix of calls is not that of the screen. Calls come from the whole dose curve; as a rule, active = well fitted cell-killing curve with a large enough effect; inconclusive = small, poorly fitted or top-dose-only effect, or effect the other way, or another doubt; inactive = no such curve, though single readings can be large or run the other way. No potency is given beside an inconclusive call; the fits are too rough.
Potency is the fitted concentration of half-maximal effect; tags give direction and shape of the fitted curve.

Assay: qHTS for induction of synthetic lethality in tumor cells producing 2HG: qHTS for the HT-1080-IDH1KD cell line;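 for activity, negative = toxicity: 0% = DMSO wells and -100% = cell-free medium wells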
Conditions: HT-1080 IDH1 knockdown viability, ATP luminescence, 48 h; activity, negative = toxicity: at 46.1 µM (top of the series) unless noted
Procedure, shortened: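 Viability of IDH1-knockdown HT-1080 fibrosarcoma cells was assessed by CellTiter-Glo after 48 h at 37 °C with titrated compound; concentration-effect curves were classified by fit quality and response size.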
In the case of CCN(CC)CCN1c2ccccc2Sc2ccc3ccccc3c21, the Potency is reported as inconclusive [cytotoxic, partial curve].
For Cc1cccc(NC(=S)N/N=C/c2c[nH]c3ccccc23)c1, the Potency was active: 16.4 µM.
In the case of CC1CCN(S(=O)(=O)c2ccc(C(=O)Nc3nnc(C4CC4)o3)cc2)CC1, the Potency is reported as inconclusive [cytotoxic, partial curve].
With Cc1csc(NC(=O)c2cccc(Cn3nc(C)c(Br)c3C)c2)n1 the Potency was inconclusive [cytotoxic, single point].
With COc1ccccc1CN(Cc1nc2ccccc2c(=O)[nH]1)S(=O)(=O)c1ccc2ccccc2c1 the Potency was active: 6.31 µM.
With Cc1cccc(N2C(=O)NC3(CCCCC3)C2=O)c1 the Potency was inconclusive [rising, partial curve].
With O=C(CNCCC1=CCCCC1)Nc1ccc(N2CCCCCC2)cc1 the Potency was inconclusive [cytotoxic, single point].
For COC(=O)c1cccc(-c2ccc(C(c3c(C)[nH][nH]c3=O)c3c(C)[nH][nH]c3=O)o2)c1, the Potency was inconclusive [cytotoxic, single point].
In the case of Cc1cc(C)c2sc(N(CCN(C)C)C(=O)c3c(F)cccc3F)nc2c1, the Potency is reported as inconclusive [cytotoxic, single point].
With O=C(Cc1cccs1)Nc1nc2c(ccc3ccccc32)s1 the activity, negative = toxicity was inconclusive: -32.6% [cytotoxic].
For O=C(c1[nH]c(C(F)(F)F)nc1-c1ccccc1)N1CCC(Cc2ccccc2)CC1, the Potency was inconclusive [cytotoxic, single point].
With CCN(Cc1nc2cc(Cl)ccc2c(=O)[nH]1)C(=O)c1nn(C)c(=O)c2ccccc12 the Potency was “inactive”.
With O=C(CCNc1ccc(Br)cc1)c1cccc([N+](=O)[O-])c1 the Potency was inconclusive [cytotoxic, single point].
With COc1cc(CNCCN2CCOCC2)ccc1OCc1ccc(Cl)cc1Cl the Potency was active: 20.6 µM.
For CC1(C)OC(=O)C(=NNc2ccc(O)cc2)C(=O)O1, the Potency was inconclusive [cytotoxic, full curve].
In the case of Cc1c(C(=O)NCc2ccccn2)sc(=O)n1Cc1ccc(-c2ccccc2)cc1, the Potency is reported as inconclusive [cytotoxic, single point].
For O=C(O)c1cccc(N2C(=O)/C(=C/c3ccc([N+](=O)[O-])cc3)C=C2c2ccccc2)c1, the Potency was inconclusive [cytotoxic, single point].
With COC(=O)c1cccc(-n2c(C)cc(/C=C3\SC(=O)NC3=O)c2C)c1 the Potency was inconclusive [cytotoxic, partial curve].
